Measured values from PubChem BioAssay AID1508624 (National Center for Advancing Translational Sciences (NCATS), 2021).
Screen size: about 48,000 compounds; about 120 (0.25%) were called active. Roughly 4% stayed inconclusive and do not appear here. Calls come from the whole dose curve; as a rule, active = well fitted activation curve with a large enough effect; inconclusive = small, poorly fitted or top-dose-only effect, or another doubt; inactive = no such curve, though single readings can be large or run the other way. The list shows a part of the results.

test: Primary qHTS for Identification of Small Molecule Activators of Huntingtin-Antisense Promoter Activity; conditions: HEK293 HTT-AS promoter firefly luciferase reporter, 24 h; series mostly up to 57.5 µM; activity change, positive = activation: at the top concentration; note: nearly all actives have a fitted effect of over 55% in size
In short: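 Firefly luciferase readout (Dual-Glo, 10 min RT) after 24 h, 37 °C compound exposure (final up to 57.5 uM) of HEK293 reporter cells cultured 24 h beforehand; PTC124 at 50 uM final as control inhibitor; activity scaled vehicle 0%, zero RLU -100%.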

Activity change, positive = activation, inactive:
CC(=O)[C@H]1CC[C@H]2[C@@H]3C[C@H](C)C4=CC(=O)CC[C@]4(C)[C@H]3[C@@H](O)C[C@]12C -11.3%, O=C(Nc1c(Cl)cncc1Cl)c1ccc(OC(F)F)c(OCC2CC2)c1 -15.5%, CCOc1ccc(CNS(=O)(=O)c2c(C(=O)N3CCCCCC3)c(C)n(C)c2C)cc1OC -4.68%, CCOC(=O)OC(C)OC1=C(C(=O)Nc2ccccn2)N(C)S(=O)(=O)c2ccccc21 (centres undefined) -0.427%, COc1ccc(NC(=O)c2nnn(Cc3nc(-c4cc(Br)ccc4OC)oc3C)c2C)cc1 -5.15%, CCOc1cccc(C2c3c(oc4ccc(F)cc4c3=O)C(=O)N2CCc2ccc(OC)cc2)c1 (centres undefined) -2.35%, COc1ccc(Nc2cc(C(=O)NC3CCCC3)c3ccccc3n2)c(OC)c1 -15.1%, Cc1ccc(CN(C(=O)Nc2cccc(Cl)c2)c2ccccn2)cc1 -10.2%, CCNC(=O)Cn1c(-c2cccs2)cc2ccccc21 -24.3%, Cc1oc(C)c2c(=O)cc(-c3ccc4c(c3)OCO4)cc(OC(=O)c3ccccc3Br)c12 -15.2%, COc1ccc(NC(=O)C2CCN(S(=O)(=O)c3ccc4c(c3)CCCC(=O)N4)CC2)cc1Cl -14.9%, COc1ccc(S(=O)(=O)N2CCN(c3ccccc3OC)CC2)cc1-c1noc(C)n1 -3.41%, Cc1ccc(Cn2c(-c3ccccc3)nc3ccccc32)cc1 -4.21%, COc1cc(/C=C(\C#N)c2nc3ccccc3c(=O)[nH]2)cc(OC)c1OC -18.6%, Cc1ccc(-c2nc3ccccc3n3c(-c4ccccc4)c4c(=O)n(C)c(=O)n(C)c4c23)cc1 11% [at 11.5 µM, percent change from vehicle, -100% = no light], CCn1ccc2cc(S(=O)(=O)N3CCCN(C(=O)NCC(C)C)CC3)ccc21 -18.6%, COc1cc(OC)c(NC(=O)c2cc(CN3CCOCC3)on2)cc1Cl -5.05%, CCn1ccc2cc(S(=O)(=O)N3CCC(C(=O)NCc4cccc(C)c4)CC3)ccc21 -14.8%, Cc1ccc(C)c(Cn2c(=O)n(CCCCC(=O)NCc3ccccc3Cl)c(=O)c3ccccc32)c1 -7.28%, COc1ccccc1N1CCN(c2csc3ccc(Cl)cc3c2=O)CC1 -5.61%, CCOc1ccccc1NC(=O)Cn1ccn(-c2ccccc2)c(=O)c1=O -6.56%, CCCCNC(=O)c1cc(Sc2ccc(OCC)cc2)nc2ccccc12 -24.9%, Cn1c(=NC(=O)c2ccc3c(c2)OCCO3)sc2cc(S(C)(=O)=O)ccc21 12.5%, COc1ccccc1CNC(=O)C(CC(C)C)NS(=O)(=O)c1ccc2c(c1)oc(=O)n2C (centres undefined) -4.84%, CCC(=O)N1CCc2cc(S(=O)(=O)NCCC(=O)NCc3ccccc3Cl)ccc21 -8.29%, Cc1ccccc1-c1noc(C(C)NC(=O)c2ccco2)n1 (centres undefined) -14.7%, CCOC(=O)c1ccc(NC(=O)C2CCCN(c3ccc(Sc4ccc(C)cc4)nn3)C2)cc1 (centres undefined) -28.4%, CC(C)c1nc2ccc(C(=O)NCCCN3CCN(c4ccccc4F)CC3)cc2o1 -18.9%, COC(=O)c1ccc(-n2nnc(-c3nc(-c4ccc5c(c4)OCO5)no3)c2C)cc1 -11.1%, CCN(C(=O)CN(C)S(=O)(=O)c1ccc2c(c1)c(=O)n(C)c(=O)n2C)c1ccc(OC)cc1 -16.3%, CC(=O)NCCNc1nc2c(S(=O)(=O)c3ccc(C)c(C)c3)nnn2c2ccc(Cl)cc12 16%, Cc1cc(Br)ccc1NC(=O)CCS(=O)(=O)c1cccc2nsnc12 -30.8%, Cc1ccc(C(C)C)c(OCC(=O)Nc2ccc(S(=O)(=O)Nc3onc(C)c3C)cc2)c1 -19.9%, N#Cc1ccc(CN2C(=O)c3ccccc3Sc3ccc(C(=O)OCc4ccco4)cc32)cc1 -0.679%, CCOc1ccc2nc(NC(=O)CS(=O)(=O)c3ccc(Cl)cc3)sc2c1 -4.65%, Cc1ccc(C2c3c(oc4ccccc4c3=O)C(=O)N2c2ccc(C)cn2)cc1 (centres undefined) -6.19%, Cc1ccc(NC(=O)Nc2nnc(N3CCCC3)s2)c(C)c1 21%, Cc1ccc(CNC(=O)Cc2coc3cc(C)cc(C)c23)cc1 -14.7%, CCCCN(C)C(=O)C1CCCN(c2ncnc3onc(-c4ccc(F)cc4)c23)C1 (centres undefined) -16.5%, Cc1cccc(N2CCN(C(=O)CSCc3ccc(F)cc3)CC2)c1C 6.61%, CCN(CC)S(=O)(=O)c1ccc2c(c1)c(=O)c(C(=O)NCc1ccccc1)cn2C -15.8%, O=C(NCc1ccccc1)c1ccc(NC(=O)c2nsc3ccccc23)cc1 -35.1%, COc1ccccc1CNC(=O)c1ccc(CS(=O)(=O)c2ccccc2C)o1 -18.7%, COc1ccc(CNC(=O)CCC(=O)N2CC3CCCN3c3ccccc32)cc1 (centres undefined) -13.6%, CC(=O)N1CCCc2cc(S(=O)(=O)N3CCC(C(=O)NCc4ccc(N(C)C)cc4)CC3)ccc21 -28.3%, COc1cc(CN(CC2CCCO2)C(=O)c2ccc(F)cc2)cc(OC)c1OC (centres undefined) -6.56%, CCCNC(=O)c1ccc(-n2c(-c3ccccc3)cc3c2CCCCC3)cc1 -0.686%, CCOc1cccc(CC(=O)Nc2ccc3nc(N4CCCCC4)cc(C)c3c2)c1OCC -17.9%, CCCCNc1nc2c(S(=O)(=O)c3ccc(C)c(C)c3)nnn2c2ccsc12 -30.2%, COc1cc(Nc2ncc3c(n2)CCN(Cc2cc(Br)cs2)C3)cc(OC)c1 -7.71%, COC(=O)c1ccccc1NC(=O)c1ccc2c(c1)CCN2S(C)(=O)=O -0.288%, Cc1cc(Nc2ccc(F)cc2)n2c(nc3ccccc32)c1C#N -30.5%, Cc1ccc(CSc2nc3c([nH]c4ccccc43)c(=O)n2C)cc1 -6.67%, Cc1c(-c2nc(-c3ccccc3)no2)nnn1-c1cccc(C(F)(F)F)c1 16.3%, COc1ccccc1CNC(=O)c1ccc2c(c1)nc(C)n2-c1ccccc1OC -5.19%, Cc1nn2c(-c3ccco3)ccnc2c1-c1ccc(F)cc1 24.7%, Cc1nc2ccccn2c(=O)c1NC(=O)c1ccc(C(F)(F)F)cc1 11.9%, COc1ccccc1NC(=O)CN1CCCN(S(=O)(=O)c2ccc(Br)cc2)CC1 -33%, COc1ccc(NC(=O)c2cccn2-c2nnc(N3CCCCC3)s2)cc1Cl -19.7%, CCOc1ccccc1OCCN[C@H](C)Cc1ccc(OC)c(S(N)(=O)=O)c1 -4.89%, Cc1ccc(NC(=O)Cn2c(=O)n(CCCCC(=O)NCc3ccccc3Cl)c(=O)c3ccccc32)cc1C -11.9%, CCOc1ccc(NC(=O)Cn2c(C)cc3ccccc3c2=O)cc1 -4.83%, Cc1ccc(-c2nnc(C3CCN(S(=O)(=O)c4ccc(C)c(C)c4)CC3)o2)cc1 -10.1%, CCOc1ccccc1NC(=O)CN1C(=O)CC(c2ccc(OC)c(OC)c2)Sc2ccccc21 (centres undefined) -30%, CCCCOC(=O)c1ccc(NC(=O)CSc2nc3c(c(=O)[nH]2)CCCC3)cc1 -5.96%, Cn1c(-n2cccc2)c(-c2c(-c3ccccc3)[nH]c3c2c(=O)n(C)c(=O)n3C)c(=O)n(C)c1=O -12%, CCN1CCOC(=O)C1CC(=O)Nc1cc(C)cc(C)c1 (centres undefined) -28.2%, Cc1ccccc1CN1C(=O)c2ccccc2Sc2ccc(C(=O)NC(C)c3ccccc3)cc21 (centres undefined) -7.78%, Cc1ccc(N2C(=O)CCSC23C(=O)N(Cc2ccccc2)c2ccccc23)cc1F (centres undefined) -41.3%, O=C(NCc1ccccc1)c1nn(-c2ccccc2)nc1CO -15.9%, COc1ccc(OC)c(/C=C(/C#N)c2nc(-c3ccc(-c4ccccc4)cc3)cs2)c1 -5.95%, Cc1ccc(CNC(=O)Cn2c(=O)n(-c3ccc(Cl)cc3)c(=O)c3c(C)c(C)sc32)cc1 16.4%, O=C(NCc1ccc(F)cc1)c1cc2c(=O)n3ccccc3nc2s1 27%, Cc1cc(C)cc(NS(=O)(=O)c2ccc3[nH]cc(C(=O)N(C)Cc4ccccc4)c(=O)c3c2)c1 -14.7%, Cc1[nH]c2ccccc2c1C1N2CC3(C)CN1CC(C)(C2)C3=O (centres undefined) -6.38%, O=C(Nc1ccc(Br)cc1F)N1CCC(CN2CCCC2)CC1 -11.5%, Cc1nn(C)c2c1c(C(F)(F)F)cc(=O)n2C(C)C(=O)NCc1ccc(Cl)cc1 (centres undefined) -10.3%, CC1=C(C(=O)OCc2ccccc2)C(c2cccc(Cl)c2Cl)CC(=O)N1 (centres undefined) 0.0265% [at 11.5 µM, percent change from vehicle, -100% = no light], O=S(=O)(O)CCS, Cc1cccc(CNC(=O)CSCc2cnn(-c3ccccc3)c2-n2cccc2)c1 -13.5%, CCOC(=O)c1ccc(NS(=O)(=O)c2cc(-c3onc(C)c3C)ccc2C)cc1 -25.7%, COc1cc(OC)c(C2Nc3c(C)cccc3-c3cc(C)nn32)cc1OC (centres undefined) -17.8%, CC1(C)SCCN(S(=O)(=O)c2ccc(OCC#CCO)cc2)[C@@H]1C(=O)NO -2.34%, CCN1C(=O)c2ccccc2S(=O)c2ccc(C(=O)N3CCN(c4cccc(C)c4)C(C)C3)cc21 (centres undefined) -36.1%, CC1=C(c2ccc(C)cc2)S(=O)(=O)NC1=NCc1cccc(F)c1 -8.67%, O=C(O)c1ccc(-n2c(/C=C\c3ccc(O)cc3)nc3ccccc3c2=O)cc1 -18.5%, COc1ccc(/C=C(\C#N)c2nc(-c3cc4c(ccc5ccccc54)oc3=O)cs2)cc1O -2.5%, Cc1ccc(C2=Nc3ccccc3N(CC(=O)NCc3ccc(F)cc3)C(=O)C2)cc1C 21.7%, CCOC(=O)c1ccccc1NC(=O)c1sc2ncn(Cc3cccc(F)c3)c(=O)c2c1C -5.05%, COc1ccc(OC)c(S(=O)(=O)NCc2cccn2Cc2cccc(C)c2)c1 -17%, CC1=C(C(=O)Nc2cccnc2)C(c2ccc(Cl)cc2)n2nc(-c3ccccc3)nc2N1 (centres undefined) -23.7%, Cc1ccc(C)c(NC(=O)CSc2c3c(nc4ccc(Cl)cc24)CCCC3)c1 -31.1%, COc1cn(CC(=O)Nc2cccc(C)c2C)c(CN2CCCCC2)cc1=O -2.81%, Cn1c(=O)c2c(nc3n(-c4ccc(O)cc4)c(-c4ccc(Br)cc4)cn23)n(C)c1=O -6.4%
